Measurements reported in paper PMC4336329 (PLoS ONE, 2015).
The campaign covered roughly 310,000 compounds. About 2,200 (0.71%) showed an effect of 50% or more. The effect is printed as a negative number. The list shows a part of the results.

Each compound was assayed against human ether-à-go-go-related gene (hERG) potassium channel (human, UniProt Q12809) (assay: primary screen, population patch clamp on CHO cells stably expressing hERG).
Chain of human ether-à-go-go-related gene (hERG) potassium channel (Q12809 whole entry, looked up): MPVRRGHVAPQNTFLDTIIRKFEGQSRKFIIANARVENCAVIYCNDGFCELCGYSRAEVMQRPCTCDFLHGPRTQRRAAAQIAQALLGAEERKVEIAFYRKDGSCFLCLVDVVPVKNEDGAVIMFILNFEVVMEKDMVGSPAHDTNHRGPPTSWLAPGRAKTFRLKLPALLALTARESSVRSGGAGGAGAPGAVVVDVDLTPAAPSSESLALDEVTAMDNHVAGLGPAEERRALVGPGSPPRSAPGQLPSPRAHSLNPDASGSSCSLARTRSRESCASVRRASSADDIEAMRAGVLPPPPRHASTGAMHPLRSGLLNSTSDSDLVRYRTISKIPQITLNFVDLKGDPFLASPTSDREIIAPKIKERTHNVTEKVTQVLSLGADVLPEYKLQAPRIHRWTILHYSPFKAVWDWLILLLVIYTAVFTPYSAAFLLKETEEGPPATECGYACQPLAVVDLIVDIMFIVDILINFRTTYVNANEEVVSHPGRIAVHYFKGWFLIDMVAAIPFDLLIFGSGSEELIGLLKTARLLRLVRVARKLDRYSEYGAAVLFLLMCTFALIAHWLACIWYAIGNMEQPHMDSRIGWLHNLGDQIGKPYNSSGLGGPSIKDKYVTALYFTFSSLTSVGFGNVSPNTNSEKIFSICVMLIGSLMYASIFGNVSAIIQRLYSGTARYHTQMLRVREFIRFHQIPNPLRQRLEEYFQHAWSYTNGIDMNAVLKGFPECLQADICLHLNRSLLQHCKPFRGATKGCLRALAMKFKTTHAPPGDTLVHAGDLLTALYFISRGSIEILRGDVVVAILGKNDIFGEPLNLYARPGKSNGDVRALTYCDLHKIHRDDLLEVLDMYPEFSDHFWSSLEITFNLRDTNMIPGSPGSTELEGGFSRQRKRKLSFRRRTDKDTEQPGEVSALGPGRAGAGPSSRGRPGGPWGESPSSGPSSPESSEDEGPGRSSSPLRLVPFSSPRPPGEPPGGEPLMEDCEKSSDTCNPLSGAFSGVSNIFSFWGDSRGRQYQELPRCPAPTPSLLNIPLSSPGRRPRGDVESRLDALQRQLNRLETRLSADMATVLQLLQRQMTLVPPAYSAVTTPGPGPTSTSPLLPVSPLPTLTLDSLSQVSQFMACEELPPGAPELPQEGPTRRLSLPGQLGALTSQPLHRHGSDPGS
For `Cc1c(NC(=O)CSc2nnnn2-c2ccc(F)cc2)c(=O)n(-c2ccccc2)n1C`, the “hERG current change (%, negative = inhibition) at 1uM” value was 5.5%.
With `O=C1NCCN/C1=C\C(=O)c1ccc(Cl)cc1` the “hERG current change (%, negative = inhibition) at 1uM” value was 10.4%.
In the case of `C=C(C)n1c(=O)[nH]c2ccccc21`, the “hERG current change (%, negative = inhibition) at 1uM” value is reported as 17.3%.
In the case of `Cc1nc2ccccc2c(=O)[nH]1`, the “hERG current change (%, negative = inhibition) at 1uM” value is reported as 5.19%.
In the case of `O=C(COC(=O)c1c(F)cccc1F)NCCNC(=O)COC(=O)c1c(F)cccc1F`, the “hERG current change (%, negative = inhibition) at 1uM” value is reported as 1.66%.
For `O=C(O)c1cccnc1SCc1cccc(Br)c1`, the “hERG current change (%, negative = inhibition) at 1uM” value was 19.1%.
In the case of `CC(=O)C(C)n1c(CN(C)Cc2ccccc2)nc2c1c(=O)n(C)c(=O)n2C` (centres unmarked), the “hERG current change (%, negative = inhibition) at 1uM” value is reported as 5.86%.
`O=C(NNS(=O)(=O)c1ccc(C(=O)NC2CCCC2)cc1)c1ccncc1` was tested, and the “hERG current change (%, negative = inhibition) at 1uM” value was 20.9%.
`Cc1sc(NC(=O)c2oc3ccccc3c2C)c(C#N)c1C` was tested, and the “hERG current change (%, negative = inhibition) at 1uM” value was 7.39%.
For `C=CCn1c(SCc2cc(=O)n3ccsc3n2)nnc1C1CCCCC1`, the “hERG current change (%, negative = inhibition) at 1uM” value was 2.24%.
For `Cc1cc(Nc2ncc(Cl)cc2Cl)n(-c2ccccc2)n1`, the “hERG current change (%, negative = inhibition) at 1uM” value was 0.983%.
For `CC1CN(C(=O)c2cccc(S(=O)(=O)N3CCN(c4ccc(F)cc4)CC3)c2)CC(C)O1` (centres unmarked), the “hERG current change (%, negative = inhibition) at 1uM” value was -0.796%.
With `O=C1CC2(CCCCC2)Oc2ccc(F)cc21` the “hERG current change (%, negative = inhibition) at 1uM” value was 2.95%.
In the case of `Cc1cccc(NC(=O)c2cccc3c2-c2ccccc2C3=O)n1`, the “hERG current change (%, negative = inhibition) at 1uM” value is reported as -6.98%.
`CN(Cc1ccccc1)C(=O)c1ccccc1NC(=O)C1=CSCCO1` was tested, and the “hERG current change (%, negative = inhibition) at 1uM” value was 7.75%.
With `Cc1cc(C)c(C)c(S(=O)(=O)NNC(=O)c2cccc(S(=O)(=O)N3CCOCC3)c2)c1C` the “hERG current change (%, negative = inhibition) at 1uM” value was 12%.
With `CC(C)(C)NC(=O)CN(Cc1cccs1)C(=O)CNS(=O)(=O)c1ccc(F)cc1` the “hERG current change (%, negative = inhibition) at 1uM” value was -3.38%.
With `Cn1cc(S(=O)(=O)NC2CCCCCC2)c(=O)n(C)c1=O` the “hERG current change (%, negative = inhibition) at 1uM” value was 15.1%.
In the case of `O=C(CCNS(=O)(=O)c1c(Cl)cccc1Cl)OCC(=O)c1ccccc1F`, the “hERG current change (%, negative = inhibition) at 1uM” value is reported as 8.77%.
In the case of `COc1cccc(NS(=O)(=O)c2ccc3[nH]cc(C(=O)NCCN4CCOCC4)c(=O)c3c2)c1`, the “hERG current change (%, negative = inhibition) at 1uM” value is reported as 3.3%.
For `O=c1[nH]c(=O)c2nnc(N/N=C\c3ccc(O)cc3)nc2[nH]1`, the “hERG current change (%, negative = inhibition) at 1uM” value was 5.59%.
With `CN1CCCN(C(=O)c2cc3c(s2)CCCC3)CC1` the “hERG current change (%, negative = inhibition) at 1uM” value was 2.27%.
`CCc1nc(SCC(=O)Nc2cc(C)on2)c2c(C)c(C)sc2n1` was tested, and the “hERG current change (%, negative = inhibition) at 1uM” value was 2.55%.
In the case of `C=CCNc1nc(Cl)nc(NC2CCCCC2)n1`, the “hERG current change (%, negative = inhibition) at 1uM” value is reported as 15.2%.
For `CCCCOCCCNC(=O)Cc1ccccc1OC`, the “hERG current change (%, negative = inhibition) at 1uM” value was 13.8%.
`Cn1c(=O)[nH]c(=O)c2c1nc(SCCN1CCCCC1)n2CCCc1ccccc1` was tested, and the “hERG current change (%, negative = inhibition) at 1uM” value was -57.3%.
With `C[C@H](NC(=O)c1ccco1)C(=O)NCCc1ccc(S(N)(=O)=O)cc1` the “hERG current change (%, negative = inhibition) at 1uM” value was 13.1%.
For `O=C(NCc1ccc(F)cc1)c1cc(S(=O)(=O)N2CCCCC2)ccc1Cl`, the “hERG current change (%, negative = inhibition) at 1uM” value was 4.33%.
With `Cn1c(=O)c2c(nc(N3CCCCC3)n2C)n(C)c1=O` the “hERG current change (%, negative = inhibition) at 1uM” value was -20.6%.
With `Cc1ccc(NC(=O)Nc2ccc3c(c2)OCO3)cc1F` the “hERG current change (%, negative = inhibition) at 1uM” value was -13.5%.
For `CN(C)S(=O)(=O)c1cccc(NC(=O)CNCc2ccccn2)c1.O=C(O)C(=O)O`, the “hERG current change (%, negative = inhibition) at 1uM” value was 9.61%.
`Cc1cc(=O)n2nc(N3CCC(C(=O)NC4CCCc5ccccc54)CC3)sc2n1` (centres unmarked) was tested, and the “hERG current change (%, negative = inhibition) at 1uM” value was -8.07%.
In the case of `CCN(CC)CCn1c2c(c(SCC(=O)Nc3nccs3)nc1=O)CCCC2`, the “hERG current change (%, negative = inhibition) at 1uM” value is reported as -22.6%.
`Cl.OCCNCc1cccc2ccccc12` was tested, and the “hERG current change (%, negative = inhibition) at 1uM” value was 18.1%.
With `CC12CC3(C)CC(C)(C1)CC(C(=O)NCCc1ccc(S(N)(=O)=O)cc1)(C2)C3` the “hERG current change (%, negative = inhibition) at 1uM” value was 1.76%.
In the case of `CC1CN(C(=O)CCc2ccccc2)C(C)CN1C(=O)CCc1ccccc1` (centres unmarked), the “hERG current change (%, negative = inhibition) at 1uM” value is reported as -20.1%.
`Cc1ccc(N2CC(C(=O)NCCS(=O)(=O)N3CCN(c4ccccc4F)CC3)CC2=O)cc1` (centres unmarked) was tested, and the “hERG current change (%, negative = inhibition) at 1uM” value was 8.65%.
In the case of `CC(NC(=O)C(=O)NCc1cccs1)c1ccccc1` (centres unmarked), the “hERG current change (%, negative = inhibition) at 1uM” value is reported as 15.6%.
For `CN1C(=O)c2oc3ccccc3c(=O)c2C1c1ccccn1` (centres unmarked), the “hERG current change (%, negative = inhibition) at 1uM” value was 11.7%.
`Cn1nc(C(=O)Nc2ccc3c(c2)OCCO3)cc1C(=O)O` was tested, and the “hERG current change (%, negative = inhibition) at 1uM” value was 14.4%.
`CC(=O)c1ccc(NS(=O)(=O)c2c(C)cc(C)cc2C)cc1` was tested, and the “hERG current change (%, negative = inhibition) at 1uM” value was 11.7%.
With `COc1cc(C2C3=C(CCCC3=O)Nc3[nH]n(-c4ccccc4)c(=O)c32)ccc1O` (centres unmarked) the “hERG current change (%, negative = inhibition) at 1uM” value was -0.0963%.
`CC1=C(C(=O)OC(C)(C)C)C(c2cccc3ccccc23)NC(=O)N1` (centres unmarked) was tested, and the “hERG current change (%, negative = inhibition) at 1uM” value was 7.15%.
In the case of `Cc1ccccc1N(CC(=O)NCC1CCCO1)C(=O)CNS(=O)(=O)c1ccc(F)cc1` (centres unmarked), the “hERG current change (%, negative = inhibition) at 1uM” value is reported as 8.68%.
